Reference: PMC9573993
No constants are given. Whether binding was seen depends on the method and setting. Binding seen in cells or lysates may run through a third protein. Some binding calls cover weakened binding; strength is not graded here.

Amino acid sequences for entries named in this document (tags omitted).
UniProt P51116: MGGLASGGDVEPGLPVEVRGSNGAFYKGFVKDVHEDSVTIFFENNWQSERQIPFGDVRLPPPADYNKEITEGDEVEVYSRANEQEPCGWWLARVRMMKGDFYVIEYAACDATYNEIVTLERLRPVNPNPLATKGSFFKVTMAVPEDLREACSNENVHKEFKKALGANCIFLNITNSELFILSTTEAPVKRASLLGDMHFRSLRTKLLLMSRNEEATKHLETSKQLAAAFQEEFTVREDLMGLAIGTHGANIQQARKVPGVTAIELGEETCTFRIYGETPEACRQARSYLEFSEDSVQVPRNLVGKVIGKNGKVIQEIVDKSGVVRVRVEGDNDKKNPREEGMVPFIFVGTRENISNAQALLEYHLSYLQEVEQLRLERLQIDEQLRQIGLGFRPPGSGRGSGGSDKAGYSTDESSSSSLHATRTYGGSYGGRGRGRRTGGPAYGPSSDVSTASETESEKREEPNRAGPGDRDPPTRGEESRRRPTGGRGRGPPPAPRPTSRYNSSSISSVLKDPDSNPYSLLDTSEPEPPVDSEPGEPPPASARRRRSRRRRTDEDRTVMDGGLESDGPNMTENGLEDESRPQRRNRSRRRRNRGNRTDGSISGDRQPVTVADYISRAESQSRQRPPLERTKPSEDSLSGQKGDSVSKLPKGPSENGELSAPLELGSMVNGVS
UniProt Q13547: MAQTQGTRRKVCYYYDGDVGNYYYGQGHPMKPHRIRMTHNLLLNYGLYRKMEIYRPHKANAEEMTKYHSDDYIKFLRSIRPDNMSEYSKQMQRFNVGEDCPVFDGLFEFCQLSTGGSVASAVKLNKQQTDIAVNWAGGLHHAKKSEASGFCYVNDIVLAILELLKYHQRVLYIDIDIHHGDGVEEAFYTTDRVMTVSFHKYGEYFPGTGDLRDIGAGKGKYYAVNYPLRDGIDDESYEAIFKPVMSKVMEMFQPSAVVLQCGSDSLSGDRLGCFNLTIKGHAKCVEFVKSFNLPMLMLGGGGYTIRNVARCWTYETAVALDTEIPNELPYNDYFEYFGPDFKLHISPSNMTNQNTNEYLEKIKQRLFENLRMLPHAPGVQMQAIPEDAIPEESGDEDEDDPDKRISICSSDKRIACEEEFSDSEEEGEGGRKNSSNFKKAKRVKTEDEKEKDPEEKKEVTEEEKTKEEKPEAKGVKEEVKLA
UniProt O14646: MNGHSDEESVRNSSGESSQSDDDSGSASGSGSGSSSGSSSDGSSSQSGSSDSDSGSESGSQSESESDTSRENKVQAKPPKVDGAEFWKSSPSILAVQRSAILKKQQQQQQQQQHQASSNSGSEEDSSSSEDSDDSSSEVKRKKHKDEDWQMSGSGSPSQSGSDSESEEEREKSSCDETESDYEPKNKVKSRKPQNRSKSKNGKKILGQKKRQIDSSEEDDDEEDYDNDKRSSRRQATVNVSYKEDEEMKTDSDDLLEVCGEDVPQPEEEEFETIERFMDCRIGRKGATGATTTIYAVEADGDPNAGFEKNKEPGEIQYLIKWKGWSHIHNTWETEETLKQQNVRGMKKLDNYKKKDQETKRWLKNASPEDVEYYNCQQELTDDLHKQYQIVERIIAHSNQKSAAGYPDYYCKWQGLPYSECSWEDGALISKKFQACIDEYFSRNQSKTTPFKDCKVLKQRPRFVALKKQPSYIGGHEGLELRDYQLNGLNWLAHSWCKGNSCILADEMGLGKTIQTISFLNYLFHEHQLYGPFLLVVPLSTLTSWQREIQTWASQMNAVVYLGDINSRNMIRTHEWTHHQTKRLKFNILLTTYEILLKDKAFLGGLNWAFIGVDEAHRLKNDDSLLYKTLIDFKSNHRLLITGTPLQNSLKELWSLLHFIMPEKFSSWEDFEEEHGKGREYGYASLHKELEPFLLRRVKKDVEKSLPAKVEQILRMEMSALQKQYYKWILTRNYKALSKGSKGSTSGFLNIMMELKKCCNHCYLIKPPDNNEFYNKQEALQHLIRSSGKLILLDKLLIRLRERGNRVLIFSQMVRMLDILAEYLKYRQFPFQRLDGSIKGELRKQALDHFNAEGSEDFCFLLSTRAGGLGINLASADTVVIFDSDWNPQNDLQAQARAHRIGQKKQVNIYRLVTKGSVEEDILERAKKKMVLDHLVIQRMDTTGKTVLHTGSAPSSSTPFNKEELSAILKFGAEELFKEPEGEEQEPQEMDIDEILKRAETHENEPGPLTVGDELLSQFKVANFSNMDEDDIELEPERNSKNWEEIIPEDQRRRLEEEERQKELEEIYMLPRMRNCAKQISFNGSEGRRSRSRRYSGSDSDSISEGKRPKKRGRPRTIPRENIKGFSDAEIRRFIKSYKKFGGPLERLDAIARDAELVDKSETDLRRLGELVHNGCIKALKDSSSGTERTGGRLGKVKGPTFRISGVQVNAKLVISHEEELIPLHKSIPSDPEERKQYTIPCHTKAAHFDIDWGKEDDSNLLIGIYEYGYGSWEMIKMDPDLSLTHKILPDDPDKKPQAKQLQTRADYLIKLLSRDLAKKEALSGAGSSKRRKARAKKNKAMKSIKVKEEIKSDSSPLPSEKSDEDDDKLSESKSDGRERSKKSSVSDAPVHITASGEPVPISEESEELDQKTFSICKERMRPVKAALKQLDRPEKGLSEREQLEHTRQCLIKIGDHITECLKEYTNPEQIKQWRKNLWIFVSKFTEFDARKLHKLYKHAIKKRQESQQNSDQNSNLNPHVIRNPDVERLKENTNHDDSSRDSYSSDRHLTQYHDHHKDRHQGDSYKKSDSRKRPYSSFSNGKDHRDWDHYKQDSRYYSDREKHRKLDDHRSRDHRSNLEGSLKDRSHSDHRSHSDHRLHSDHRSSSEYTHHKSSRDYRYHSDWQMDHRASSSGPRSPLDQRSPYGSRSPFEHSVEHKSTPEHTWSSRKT

T1: RNF157 (human (endogenous in HEK293T)) (UniProt Q96PX1)
T1 sequence: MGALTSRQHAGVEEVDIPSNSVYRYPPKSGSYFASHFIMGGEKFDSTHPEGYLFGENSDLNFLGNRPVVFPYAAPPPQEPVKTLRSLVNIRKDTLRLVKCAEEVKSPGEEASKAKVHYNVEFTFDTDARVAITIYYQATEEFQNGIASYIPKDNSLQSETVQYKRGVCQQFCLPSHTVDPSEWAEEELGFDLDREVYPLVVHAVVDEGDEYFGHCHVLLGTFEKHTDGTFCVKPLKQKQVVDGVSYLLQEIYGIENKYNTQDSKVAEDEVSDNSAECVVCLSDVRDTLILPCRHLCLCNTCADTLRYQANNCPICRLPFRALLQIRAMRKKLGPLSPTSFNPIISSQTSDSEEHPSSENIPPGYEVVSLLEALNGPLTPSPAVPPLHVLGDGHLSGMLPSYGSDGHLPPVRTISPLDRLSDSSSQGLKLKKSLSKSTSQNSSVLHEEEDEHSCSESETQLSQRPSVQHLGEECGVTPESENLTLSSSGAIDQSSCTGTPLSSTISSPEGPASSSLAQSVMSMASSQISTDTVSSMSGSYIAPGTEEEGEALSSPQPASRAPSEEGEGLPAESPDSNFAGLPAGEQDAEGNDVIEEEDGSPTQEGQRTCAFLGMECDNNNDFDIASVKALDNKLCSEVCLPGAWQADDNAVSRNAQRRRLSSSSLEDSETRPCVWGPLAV

T2: RNF157 (human (endogenous in THP-1-derived M0 macrophages)) (UniProt Q96PX1)
T2 sequence: T1 sequence

B1: PLRG1 (protein, UniProt O43660 1-514)
chain: MVEEVQKHSVHTLVFRSLKRTHDMFVADNGKPVPLDEESHKRKMAIKLRNEYGPVLHMPTSKENLKEKGPQNATDSYVHKQYPANQGQEVEYFVAGTHPYPPGPGVALTADTKIQRMPSESAAQSLAVALPLQTKADANRTAPSGSEYRHPGASDRPQPTAMNSIVMETGNTKNSALMAKKAPTMPKPQWHPPWKLYRVISGHLGWVRCIAVEPGNQWFVTGSADRTIKIWDLASGKLKLSLTGHISTVRGVIVSTRSPYLFSCGEDKQVKCWDLEYNKVIRHYHGHLSAVYGLDLHPTIDVLVTCSRDSTARIWDVRTKASVHTLSGHTNAVATVRCQAAEPQIITGSHDTTIRLWDLVAGKTRVTLTNHKKSVRAVVLHPRHYTFASGSPDNIKQWKFPDGSFIQNLSGHNAIINTLTVNSDGVLVSGADNGTMHLWDWRTGYNFQRVHAAVQPGSLDSESGIFACAFDQSESRLLTAEADKTIKVYREDDTATEETHPVSWKPEIIKRKRF

Columns and labels:
[1] = target: T1, RNF157 (human (endogenous in HEK293T)); assay: co-IP; HEK293T lysate; precipitated with anti-RNF157 (anti-IgG as control) and protein A/G beads, 4 hours at 4°C; western blot of the candidates
[2] = target: T2, RNF157 (human (endogenous in THP-1-derived M0 macrophages)); assay: co-IP; M0 macrophage (PMA-treated THP-1) lysate; precipitated with anti-RNF157 (anti-IgG as control) and protein A/G beads, 4 hours at 4°C; western blot of the candidates

Row | Molecule | binding [1] | binding [2]
1 | FXR2 (from UniProt P51116 1-673) | binds | binds
2 | HDAC1 (from UniProt Q13547 1-482) | binds | binds
3 | CHD1 (from UniProt O14646 1-1710) | binds weakly | –
4 | B1 | no binding | –
